Several values for one entry are separate records, joined by “and”; a condition that tells them apart may be missing. Identical values can stand only once. In all, about 390,000 compounds went through this assay and about 2,200 (0.56%) were called active. Inconclusive results, whose numbers are uncertain, are shown with a selection of clear calls. Calls follow the shape of the dose curve; as a rule, active = well fitted inhibition curve with a large enough effect; inconclusive = small, poorly fitted or top-dose-only effect; inactive = no such curve, though single readings can be large or run the other way. Where the call is inconclusive, the potency comes from a doubtful curve fit.
These compounds were tested against Chromobox protein homolog 1 (Homo sapiens) (UniProt P83916) (assay: HTS for Inhibitors of HP1-beta Chromodomain Interactions with Methylated Histone Tails). Conditions: AlphaScreen HP1-beta / biotin-H3K9me3 peptide binding; series mostly up to 114 µM; activity change, negative = inhibition: at the top concentration.
How it was run: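 Compound inhibition of the preformed complex between 50 nM HP1-beta and 50 nM biotinylated H3K9me3 peptide was read by AlphaScreen. Buffer was PBS pH 7.4 with 0.01% Tween-20. Incubations ran 30 min at room temperature, with 10 ug/mL donor/acceptor beads.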
Also: nearly all actives have a fitted effect of over 70% in size.
Potency is read from the fitted curve at half-maximal effect; tags tell the direction and shape of the fitted curve.

Chain of UniProt P83916 (P83916 whole entry, looked up): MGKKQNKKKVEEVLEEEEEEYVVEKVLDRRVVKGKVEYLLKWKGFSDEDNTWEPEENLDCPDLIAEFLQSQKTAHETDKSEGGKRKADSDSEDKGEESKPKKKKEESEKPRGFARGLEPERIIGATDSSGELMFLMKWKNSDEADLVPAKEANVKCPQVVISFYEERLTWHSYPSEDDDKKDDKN

SMILES	Potency	activity change, negative = inhibition
Cc1nc(SC2CC(=O)N(c3ccccc3)C2=O)n[nH]1 (stereo not drawn)	inconclusive: 50.1 µM [inhibitor, partial curve, poor fit]	
COc1ccc(C(NC(=O)/C=C/c2ccco2)c2ccc(OC)cc2)cc1	inconclusive: 50.1 µM [inhibitor, single point]	
CN1CCN(CC(O)COc2ccc(OCC(O)CN3CCN(C)CC3)cc2)CC1 (stereo not drawn)		inactive: 14.3%
COc1ccc(/C=C(\NC(=O)/C=C/c2ccco2)C(=O)NCCc2nc3ccccc3[nH]2)cc1	inconclusive: 28.2 µM [inhibitor, single point]	
CCN(CC)c1ccc(N=Cc2ccccc2[N+](=O)[O-])cc1	active: 8.91 µM	
O=C(/C=C/c1ccc(O)c(O)c1)NC(=O)c1ccccc1O	inconclusive: 44.7 µM [inhibitor, partial curve, poor fit]	
Cc1cccc(NC2=C(NCCO)C(=O)c3ccccc3C2=O)c1	active: 20 µM	
COc1ccc(-c2nc3c4ccccc4n(CC(=O)N4CCN(c5ccccc5OC)CC4)c(=O)n3n2)cc1		inactive: -5.34%
CCCc1nc2c(s1)CCc1onc(-c3ccc(OC)cc3)c1-2	inconclusive: 28.2 µM [inhibitor, partial curve]	
CC[C@]12C(=O)N(C)C[C@H]([C@@H]3C(=O)N(C)C(=O)[C@@H]31)N2C(=O)c1ccc(F)cc1		inactive: 19.5%
COc1ccccc1N1CC(C)(C)C(=O)N(C(=O)c2ccc(Cl)cc2)C1=S		inactive: -6.21%
Cc1cccn2c(CNCCc3ccco3)c(C(=O)N3CCOCC3)nc12		inactive: 5.51%
c1ccc(N=Nc2cn[nH]c2-c2ccco2)cc1	inconclusive: 22.4 µM [inhibitor, full curve]	
COc1cc(OC)c2ccc(=O)oc2c1C(CCN1CCN(c2ccccc2)CC1)c1ccc(N(C)C)cc1 (stereo not drawn)	inconclusive: 22.4 µM [inhibitor, full curve] and inconclusive: 25.1 µM [inhibitor, full curve]	
O=C(NC(=S)Nc1ccccc1N1CCCC1)c1ccccc1[N+](=O)[O-]	inconclusive: 31.6 µM [inhibitor, single point]	
CCOC(=O)c1sc(NC(=O)c2cc(-c3ccccc3)nc3ccccc23)c(C#N)c1C	inconclusive: 17.8 µM [inhibitor, full curve]	
O=C(c1cccc(-n2cccc2)c1)N1CCN(S(=O)(=O)c2c(F)cccc2F)CC1	inconclusive: 50.1 µM [inhibitor, partial curve, poor fit]	
COc1cc(-c2nc(Cn3nnc(C(=O)Nc4ccccc4)c3C)c(C)o2)cc(OC)c1OC	inconclusive: 15.8 µM [inhibitor, partial curve, poor fit]	

— PubChem BioAssay AID540317 (National Center for Advancing Translational Sciences (NCATS), 2011)
